Data on six substances can be found in publication PMC4496341.

By UniProt entry, the sequences of proteins in these tests, tags left out. Where a name states a change or a piece, a line headed by the entry shows the natural chain unless it says otherwise.
UniProt O95863: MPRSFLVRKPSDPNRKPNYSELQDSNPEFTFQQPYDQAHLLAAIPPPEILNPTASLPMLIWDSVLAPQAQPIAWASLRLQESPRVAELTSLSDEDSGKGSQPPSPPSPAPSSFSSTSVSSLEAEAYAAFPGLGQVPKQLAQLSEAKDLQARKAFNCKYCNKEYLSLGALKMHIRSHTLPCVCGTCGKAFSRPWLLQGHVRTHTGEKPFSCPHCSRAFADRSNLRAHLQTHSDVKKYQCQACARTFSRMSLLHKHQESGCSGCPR
UniProt P30086: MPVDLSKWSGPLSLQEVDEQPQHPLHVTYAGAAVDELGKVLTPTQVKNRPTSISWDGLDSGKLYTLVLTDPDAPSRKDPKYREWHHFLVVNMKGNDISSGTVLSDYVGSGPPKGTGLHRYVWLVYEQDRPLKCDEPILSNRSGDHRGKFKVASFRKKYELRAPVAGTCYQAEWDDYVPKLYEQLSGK
UniProt P35240: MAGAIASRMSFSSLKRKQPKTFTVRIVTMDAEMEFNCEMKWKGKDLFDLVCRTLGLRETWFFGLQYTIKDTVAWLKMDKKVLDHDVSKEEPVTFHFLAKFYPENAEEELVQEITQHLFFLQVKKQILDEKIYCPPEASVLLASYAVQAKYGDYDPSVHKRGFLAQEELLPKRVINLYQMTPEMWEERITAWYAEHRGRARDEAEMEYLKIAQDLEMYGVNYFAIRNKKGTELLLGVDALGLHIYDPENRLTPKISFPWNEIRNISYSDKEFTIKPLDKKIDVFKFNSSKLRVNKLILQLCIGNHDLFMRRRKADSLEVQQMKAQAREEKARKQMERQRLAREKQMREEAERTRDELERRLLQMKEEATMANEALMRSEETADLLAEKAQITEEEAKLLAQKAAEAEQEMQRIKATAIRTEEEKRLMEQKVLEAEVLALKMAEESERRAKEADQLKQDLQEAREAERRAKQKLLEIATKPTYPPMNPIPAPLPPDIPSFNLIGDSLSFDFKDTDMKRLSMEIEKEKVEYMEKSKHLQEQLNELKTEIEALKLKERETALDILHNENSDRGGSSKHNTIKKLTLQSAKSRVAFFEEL

Experiment [1] has as its target Snail of the GST-pull down assays of Figure 6B and 6E (UniProt O95863). The experiment in a line: pull-down; GST-pull down of Snail and NF2 (Figure 6B); which partner was on the beads is not stated; methods: RIPA buffer, 1 h, 4°C; only the target purified.
The target of experiment [2] is Agarose-conjugated GST-RKIP (UniProt P30086). The experiment in a line: pull-down; GST-RKIP pull-down of NF2 with increasing Snail lysate added (Figure 6D), same condition as Figure 6A; only the target purified.
In experiment [3] the target is Snail of the GST-pull down assays of Figure 6B and 6E (UniProt O95863). The experiment in a line: pull-down; GST-pull down of Snail and NF2 with increasing RKIP-lysates added (Figure 6E); only the target purified.
For experiment [4], the target named is Agarose-conjugated GST-RKIP (UniProt P30086). The experiment can be described thus: pull-down; agarose-conjugated GST-RKIP incubated with NF2, p53 or Snail transfected HEK293 lysate in RIPA buffer for 1 hr (methods: 4°C); Western blot of precipitate and supernatant; only the target purified. On the technique in general: A western blot detects proteins with antibodies after separation by electrophoresis.

Experiment [5] has as its target NF2-FLAG (Isoform 1 of merlin), full length, in transfected HEK293 lysate (UniProt P35240). The experiment in a line: pull-down; competition in the GST-RKIP pull-down of NF2: increasing Snail lysate against NF2 in lysate (Figure 6D).
Experiment [6] has as its target Snail of Figure 6F (precipitated by anti-Snail Ab) (UniProt O95863). The experiment can be described thus: co-IP; the indicated protein incubated with whole-cell extracts from A549 cells transfected with the indicated vectors in RIPA buffer for 1 hr; co-precipitated by anti-Snail Ab, IgG as control (Figure 6F).
Experiment [7] has as its target Snail in A549 cells (precipitated with Snail Ab) (human (endogenous in A549)) (UniProt O95863). The experiment can be described thus: co-IP; A549 cells incubated with silica for 2 hr and with the proteasome inhibitor ALLN for 4 hr; IP with Snail Ab or RKIP Ab; RIPA buffer.
In experiment [8] the target is RKIP in A549 cells (precipitated with RKIP Ab) (human (endogenous in A549)) (UniProt P30086). The description is as above.

These are yes or no findings as the source states them, for the method shown. Binding seen in cells or lysates may run through a third protein. Some binding calls cover weakened binding; strength is not graded here.

With “NF2-FLAG (Isoform 1 of merlin), full length, in transfected HEK293 lysate (from UniProt P35240 1-595)”, the binding result in experiment [1], in experiment [2], in experiment [3] and in experiment [4] was “binds” throughout.

For the substance “Snail, in transfected HEK293 lysate (from UniProt O95863 1-264)”, the values for the binding entry in experiment [4] and in experiment [5] were “no binding” and “binds”, respectively.

Regarding “NF2-N-TERM-FLAG 1-332 AA, in extracts of transfected A549 cells (from UniProt P35240 1-332) (domain or fragment)”, the binding result in experiment [6] is reported as “binds”.

For the substance “NF2-N-TERM-FLAG 1-332 AA, in transfected HEK293 lysate (from UniProt P35240 1-332) (domain or fragment)”, the binding result in experiment [1] and in experiment [4] was “binds” in each case.

For “NF2-FLAG (Isoform 1 of merlin), full length, in extracts of transfected A549 cells (from UniProt P35240 1-595)”, the binding result in experiment [6] was “binds”.

For the substance “NF2 in A549 cells (from UniProt P35240 1-595)”, the binding entry in experiment [7] and in experiment [8] was “binds” in each case.
